Measured values taken from patent publication US20030092037A1, “Elk1 phosphorylation related gene” (priority 2001, published 2003).

Tested on: MAP kinase cascade activation
Experiment: Reporter activity reflecting MAP kinase cascade activation, corrected using an internal control (Elk1-GAL4 luciferase reporter in 293-EBNA cells)
Type: cell-based, human
Settings: for Reporter activity corrected with internal control, as a factor of null vector (S/B value): 293-EBNA cells, 24 hours
Procedure: (in the presence of 5% CO2). […] The method used for introduction was in accordance with the attached protocol. After culturing for 24 hours at 37° C., reporter activity (firefly luciferase acitivity), which reflects MAP kinase cascade activation, and reporter activity being the internal control (sea pansy luciferase) were measured using Picagene Dual (purchased from Toyo Ink Manufacturing) in accordance with the manufacturer's instructions.
Luciferase activity was measured with Perkin Elmer's Wallac ARVOTMST 1420 MULTILABEL COUNTER.
Reporter activity where an expression plasmid comprising the above gene was introduced, which reflects MAP kinase cascade activation corrected with internal control reporter activity, is shown in Table 1, which is expressed as a factor of the same reporter activity where a null vector was introduced (S/B value).

B1: 22 (protein, listed as Homo sapiens)
chain: MADGPDEYDTEAGCVPLLHPEEIKPQSHYNHGYGEPLGRKTHIDDYSTWDIVKATQYGIYERCRELVEAGYDVRQPDKENVTLLHWAAINNRIDLVKYYISKGAIVDQLGGDLNSTPLHWATRQGHLSMVVQLMKYGADPSLIDGEGCSCIHLAAQFGHTSIVAYLIAKGQDVDMMDQNGMTPLMWAAYRTHSVDPTRLLLTFNVSVNLGDKYHKNTALHWAVLAGNTTVISLLLEAGANVDAQNIKGESALDLAKQRKNVWMINHLQEARQAKGYDNPSFLRKLKADKEFRQKVMLGTPFLVIWLVGFIADLNIDSWLIKGLMYGGVWATVQFLSKSFFDHSMHSALPLGIYLATKFWMYVTWFFWFWNDLNFLFIHLPFLANSVALFYNFGKSWKSDPGIIKATEEQKKKTIVELAETGSLDLSIFCSTCLIRKPVRSKHCGVCNRCIAKFDHHCPWVGNCVGAGNHRYFMGYLFFLLFMICWMIYGCISYWGLHCETTYTKDGFWTYITQIATCSPWMFWMFLNSVFHFMWVAVLLMCQMYQISCLGITTNERMNARRYKHFKVTTTSIESPFNHGCVRNIIDFFEFRCCGLFRPVIVDWTRQYTIEYDQISGSGYQLV
Reporter activity corrected with internal control, as a factor of null vector (S/B value) (25 ng/well expression plasmid): 24.2 | Reporter activity corrected with internal control, as a factor of null vector (S/B value) (50 ng/well expression plasmid): 50.8 | Reporter activity corrected with internal control, as a factor of null vector (S/B value) (100 ng/well expression plasmid): 69.3 | Dependence of corrected reporter activity on amount of expression plasmid (plasmid 12.5 ng, 25 ng, 50 ng and 100 ng): increases that were dependent on the amount of expression plasmid
